Read counts are not given, so values of variants with three or more changes are uncertain.
B1: CPEB3 Ribozyme (parent)
chain: UAACAGGGGGCCACAGCAGAAGCGUUCACGUCGCAGCCCCUGUCAGAUUCUGGUGAAUCUGCGAAUUCUGCUGUAUAUCUC

Variants of: B1
Assay: self-cleavage, relative activity (ratio to wild type); higher = more cleavage; in vitro, sequencing
Summary of the method: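 Barcoded CPEB3 ribozyme mutants, produced by rounds of error-prone PCR, self-cleaved while being transcribed with T7 RNA polymerase for 5 hours at 37°C and during a subsequent 15 min DNase I step before EDTA was added. Sequencing of template-switched cDNA on Illumina gave cleaved and total reads, and DNA sequencing assigned barcodes to variants. Each variant's relative activity is its cleaved/total read fraction divided by the unmutated ribozyme's fraction, averaged across three batches. A variant needed a minimum of 5 reads.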

Row | Variant | self-cleavage
1 | UAACAGGGGGCCACAGCAGAAGCGUUCACGUCGCAGCCCCCGUCAGAUUCUGGUGGAUUUGCGAAUUCUGCAGUAUAUCUC | 0.06
2 | UAACAGGGGGCCACAGCAGAAGCGUUCACGUCGCAGCCCCCGUCAGAUUCUGGUGGAUUUGCGAAUUCUGCCGUAUAUCUC | 0.25
3 | UAACAGGGGGCCACAGCAGAAGCGUUCACGUCGCAGCCCCCGUCAGAUUCUGGUGGAUCUGUGAAUUCUGCCGUAAAUCUC | 0.31
4 | UAACAGGGGGCCACAGCAGAAGCGUUCACGUCGCAGCCCCCGUCAGAUUCUGGUGGAUCUGCGAAUUCUGCCGUAUAUCUC | 0.91
5 | UAACAGGGGGCCACAGCAGAAGCGUUCACGUCGCAGCCCCCGUCAGAUUCUGGUGGAUCUGCGAAUUCUGCUGUAAAUCCC | 0.78
6 | UAACAGGGGGCCACAGCAGAAGCGUUCACGUCGCAGCCCCCGUCAGAUUCUGGUGGAUCUGCGAAUUCUGCUGUAUACCUC | 0.95
7 | UAACAGGGGGCCACAGCAGAAGCGUUCACGUCGCAGCCCCCGUCAGAUUCUGGUGGAUCUGCGAAUUCUGCUGUAUAUCCC | 0.71
8 | UAACAGGGGGCCACAGCAGAAGCGUUCACGUCGCAGCCCCCGUCAGAUUCUGGUGUAUCUGCGUAUUCUGCUGUAUAUCUC | 0.31
9 | UAACAGGGGGCCACAGCAGAAGCGUUCACGUCGCAGCCCCCGUCAGAUUCUGGUGUAUCAGCGAAUCCUGCUGUAUAUCUC | 0.26
10 | UAACAGGGGGCCACAGCAGAAGCGUUCACGUCGCAGCCCCCGUCAGAUUCUGGUGUAUCCGCGAAUUCUGCUGUAUAUCUC | 0.15
11 | UAACAGGGGGCCACAGCAGAAGCGUUCACGUCGCAGCCCCCGUCAGAUUCUGGUGUAUCUGCGAAUUCAGCUGUAUAUCUC | 0.46
12 | UAACAGGGGGCCACAGCAGAAGCGUUCACGUCGCAGCCCCCGUCAGAUUCUGGUGACUCUGCGAAUUCUUCUGUAUAUCUC | 0.18
13 | UAACAGGGGGCCACAGCAGAAGCGUUCACGUCGCAGCCCCCGUCAGAUUCUGGUGAGUCUGCGACUUCUGCUGUUUAUCUC | 0.15
14 | UAACAGGGGGCCACAGCAGAAGCGUUCACGUCGCAGCCCCCGUCAGAUUCUGGUGAGUCUGAGAAUUCUGCUGUAUAUCUC | 0.14
15 | UAACAGGGGGCCACAGCAGAAGCGUUCACGUCGCAGCCCCCGUCAGAUUCUGGUGAGUCUGUGAAUUCUGCGGUAUAUCUC | 0.39
16 | UAACAGGGGGCCACAGCAGAAGCGUUCACGUCGCAGCCCCCGUCAGAUUCUGGUGAGUCUGCGAAUUCUGCUGUAUAUUUC | 1.28
17 | UAACAGGGGGCCACAGCAGAAGCGUUCACGUCGCAGCCCCCGUCAGAUUCUGGUGAGUCUACGUAUCCAGCUGUAUUUCUC | 0.29

Row | Variant | self-cleavage
18 | UAACAGGGGGCCACAGCAGAAGCGUUCACGUCGCAGCCCCCGUCAGAUUCUGGUGAGUCUGCGAAUUCUGCUAUAUAUCUC | 1.23
19 | UAACAGGGGGCCACAGCAGAAGCGUUCACGUCGCAGCCCCCGUCAGAUUCUGGUGAGACUGCGAAUUCUGCUGUAUAUCUC | 0.37
20 | UAACAGGGGGCCACAGCAGAAGCGUUCACGUCGCAGCCCCCGUCAGAUUCUGGUGAGUCUGCGAAUACUGCUGUAUAUCUC | 0.51
21 | UAACAGGGGGCCACAGCAGAAGCGUUCACGUCGCAGCCCCCGUCAGAUUCUGGUGAGUCUGCGAAUUCCGCUGUACAUCUC | 0.66
22 | UAACAGGGGGCCACAGCAGAAGCGUUCACGUCGCAGCCCCCGUCAGAUUCUGGUGAGUCUGCGAAUUCUGCUGUAAAUCUC | 1.12
23 | UAACAGGGGGCCACAGCAGAAGCGUUCACGUCGCAGCCCCCGUCAGAUUCUGGUGAGUCUGCGAAUUCUGCUGUAUAUCCC | 0.81
24 | UAACAGGGGGCCACAGCAGAAGCGUUCACGUCGCAGCCCCCGUCAGAUUCUGGUGAUUCUGCGAACUCUGCUGCAUAUCUC | 0.48
25 | UAACAGGGGGCCACAGCAGAAGCGUUCACGUCGCAGCCCCCGUCAGAUUCUGGUGAUUCUGCGAAUUCUGCUGUAUAUCCC | 0.76
26 | UAACAGGGGGCCACAGCAGAAGCGUUCACGUCGCAGCCCCCGUCAGAUUCUGGUGAAUCUGCGCUUUUCGCUGUAUAUCUC | 0.2
27 | UAACAGGGGGCCACAGCAGAAGCGUUCACGUCGCAGCCCCCGUCAGAUUCUGGUGAAUCUGCGGAUUCUGCUGUGUAUCUC | 0.57
28 | UAACAGGGGGCCACAGCAGAAGCGUUCACGUCGCAGCCCCCGUCAGAUUCUGGUGAAUCUGCGGACUCUGCUGUAUAUCUC | 0.3
29 | UAACAGGGGGCCACAGCAGAAGCGUUCACGUCGCAGCCCCCGUCAGAUUCUGGUGAAUCUGCGUAUUCUGCUGUGUAUCUC | 0.47
30 | UAACAGGGGGCCACAGCAGAAGCGUUCACGUCGCAGCCCCCGUCAGAUUCUGGUGAAUCUGCGUAUUCUGCUGUAUGUCUC | 0.29
31 | UAACAGGGGGCCACAGCAGAAGCGUUCACGUCGCAGCCCCCGUCAGAUUCUGGUGAAUCUGCGUACUCUGCUGUAUAUCUC | 0.46
32 | UAACAGGGGGCCACAGCAGAAGCGUUCACGUCGCAGCCCCCGUCAGAUUCUGGUGAAUCUGCGUACUUCGCUGUAUGUCUC | 0.22
33 | UAACAGGGGGCCACAGCAGAAGCGUUCACGUCGCAGCCCCCGUCAGAUUCUGGUGAAUCUGCGUAUUCUGCUGCAUAUCUC | 0.53
34 | UAACAGGGGGCCACAGCAGAAGCGUUCACGUCGCAGCCCCCGUCAGAUUCUGGUGAAUCUGCGAGUUCAGCUGCAUAUCUC | 0.35

— the RNAGym collection of RNA variant scans (doi:10.1093/nar/gkz1192)
